In PubChem BioAssay AID686979 (National Center for Advancing Translational Sciences (NCATS), 2013):
Several values for one entry are separate records, joined by “and”; a condition that tells them apart may be missing. Identical values can stand only once. Out of some 420,000 compounds screened, about 50,000 (12%) were called active. The shares of active, inactive and inconclusive entries below differ from those in the screen. Calls come from the whole dose curve; as a rule, active = well fitted inhibition curve with a large enough effect; inconclusive = small, poorly fitted or top-dose-only effect; inactive = flat fitted curve, though single readings scatter. A potency beside an inconclusive call is a rough fit, not a confirmed value.

Assay: qHTS for Inhibitors of human tyrosyl-DNA phosphodiesterase 1 (TDP1): qHTS in cells in presence of CPT; note: nearly all actives have a fitted effect of over 55% in size
Conditions: chicken DT40 Tdp1-/-;hTDP1 cells + 20 nM CPT, ATP luminescence, 48 h; series mostly up to 46.2 µM
Procedure, shortened: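 Chicken DT40 Tdp1-/- cells complemented with human TDP1, 400 cells/well, exposed to compounds plus 20 nM camptothecin for at least 48 h at 37 C; viability read as ATP content by CellTiter-Glo luminescence.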
Potency is the fitted concentration of half-maximal effect; tags give direction and shape of the fitted curve.

SMILES | Potency
COc1ccc(-n2c(-c3ccccc3[N+](=O)[O-])nc3ccccc3c2=O)cc1 | active: 23.1 µM
O=C1NCN(c2ccccc2)C12CCN(C(CCc1ccccc1)c1nnnn1C1CCCCC1)CC2 (configuration not stated) | inconclusive: 29.1 µM [inhibitor, single point]
CNC(C(=O)c1ccccc1)C(OC(C)C)c1ccc(Cl)cc1 (configuration not stated) | inconclusive: 8.2 µM [inhibitor, partial curve]
O=C(O)CC1OCC=C2CN3CCC45C6=CC(=O)C(=O)C([N+](=O)[O-])=C6NC4C1C2CC35 (configuration not stated) | active: 14.1 µM
CCC(c1nnnn1-c1ccc(OC)cc1)N1CCC(n2c(=O)[nH]c3ccccc32)CC1 (configuration not stated) | inconclusive: 25.9 µM [inhibitor, single point]
CN1Cc2cnnn2-c2ccccc2C1C#N (configuration not stated) | inactive
COc1ccccc1N1CCN(CCc2c[nH]c3cc4c(cc23)OCO4)CC1 | active: 23.1 µM
CNC(=O)O/N=C/C(C)(C)S(C)=O (configuration not stated) | inactive
CCOC(=O)c1c(-c2ccccc2)oc2ccc(OC(=O)N(C)C)cc12 | inconclusive: 23.1 µM [inhibitor, single point]
O=C1NCN(c2ccccc2)C12CCN(C(c1cccs1)c1nnnn1C1CCCCC1)CC2 (configuration not stated) | active: 16.4 µM
Cn1cc([N+](=O)[O-])c(C(=O)Nc2ccc3c(C(F)(F)F)cc(=O)oc3c2)n1 | inactive
O=c1c2ccccc2nc(/C=C/c2cccnc2)n1Cc1ccccc1 | inconclusive: 16.4 µM [inhibitor, single point]
O=[N+]([O-])c1ccc(C2C3C(c4ccccc4)=NC4(CCCCC4)N32)cc1 (configuration not stated) | inconclusive: 25.9 µM [inhibitor, single point]
Cc1cc(OCCCC(=O)NCc2cccs2)ccc1Cl | inactive
CC(C)n1cnc2c(C(=O)N[C@H]3CN4CCC3CC4)cc(Cl)cc21 | inconclusive: 0.944 µM [inhibitor, full curve, poor fit]
Cc1cccc(N2CCN(C(=O)c3ccc(CNc4c(N5CCC(C)CC5)c(=O)c4=O)cc3)CC2)c1C | inconclusive: 29.1 µM [inhibitor, single point]
O=C1NC(=S)NC(=O)C1=Cc1ccc2c(c1)CCN2CCCCl | inconclusive: 29.1 µM [inhibitor, single point]
CCN(CC)C(=O)[C@H]1C[C@H](CC(=O)NCC23CC4CC(CC(C4)C2)C3)C(=O)N2CCc3c([nH]c4cc(-c5ccco5)ccc34)[C@]12C | inconclusive: 20.6 µM [inhibitor, single point]
O=c1c2ccccc2nc(CNCc2ccco2)n1-c1ccc(F)cc1 | inconclusive: 29.1 µM [inhibitor, single point]
O=P(Oc1ccccc1)(Oc1ccccc1)C(Nc1ccccc1)c1ccccc1 (configuration not stated) | inconclusive: 29.1 µM [inhibitor, single point]
Oc1cc(Cl)c(Cl)c(Cl)c1 | inconclusive: 29.1 µM [inhibitor, single point]
CCOc1cc2c(cc1OCC)-n1cccc1C(c1cccc(F)c1)NC2 (configuration not stated) | active: 20.6 µM
COC(=O)C[C@](O)(CCCC(C)(C)O)C(=O)O[C@@H]1C(OC)=CC23CCCN2CCc2cc4c(cc2[C@H]13)OCO4 (some centres not stated) | active: 37.6 nM and active: 13.3 nM

SMILES | Potency
O=c1oc(Cl)c(Cl)c2ccccc12 | active: 3.26 µM
O=c1c2ccccc2nc(CSc2ncnc3nc[nH]c23)n1-c1ccccc1Cl | inconclusive: 16.4 µM [inhibitor, partial curve]
O=c1[nH]c(=O)n(C2CCCCCC2)c(O)c1C=NCc1cccnc1 | inactive
COc1cc(C=C2C(=O)NC(=O)NC2=O)ccc1OCc1ccc([N+](=O)[O-])cc1 | inactive
Cc1ccc(-c2cc(-c3ccc(C)cc3)[n+](-c3ccccc3)c(-c3ccc(C)cc3)c2)cc1 | active: 0.517 µM
COc1ccc(-c2c3c(=O)n(C)c(=O)n(C)c3c3n2-c2ccccc2NC3c2ccccc2OC)cc1 (configuration not stated) | active: 10.3 µM
COC(=O)C1=C(c2ccc(F)cc2OCc2ccccc2)C[C@@H]2CC[C@H]1N2C(=O)NC1Cc2ccccc2C1 | inconclusive: 23.1 µM [inhibitor, single point]
CC1(C)C(C=C(Cl)Cl)C1C(=O)OC(C#N)c1cccc(Oc2ccccc2)c1 (configuration not stated) | inconclusive: 4.56 µM [inhibitor, full curve, poor fit]
O=c1c2ccccc2nc(-c2ccco2)n1-c1ccc(Br)cc1 | active: 11.6 µM
O=C1NCN(c2ccccc2)C12CCN(C(c1ccnc3ccccc13)c1nnnn1C1CCCCC1)CC2 (configuration not stated) | inconclusive: 18.4 µM [inhibitor, single point]
Oc1cc(Cl)ccc1Oc1ccc(Cl)cc1Cl | active: 33.5 µM and active: 7.7 µM
NCC(O)c1cccc(O)c1 (configuration not stated) | inconclusive: 33.5 µM [inhibitor, partial curve, poor fit]
CCCCCCC(=O)N/N=C/c1c(O)n(CCCC)c(=S)[nH]c1=O | inconclusive: 29.1 µM [inhibitor, single point]
CC(=O)N1CCN(c2ccc(N=Cc3c(O)n(Cc4ccccc4)c(=O)[nH]c3=O)cc2)CC1 | inconclusive: 25.9 µM [inhibitor, single point]
CCOP(=O)(C#CC(C)(C)C)C(O)(c1ccccc1)C(F)(F)F (configuration not stated) | inactive
COc1ccc(C2SCC(=O)Nc3c2c(C)nn3-c2ccccc2)cc1 (configuration not stated) | inactive
CCOc1ccc(NCc2cccn2-c2nnc(N3CCC(C(=O)NC(C)c4ccccc4)CC3)s2)cc1 (configuration not stated) | active: 20.6 µM
Cc1cccc(N2C(=O)NC(=O)/C(=C\c3cnc(-c4ccccc4)nc3)C2=O)c1 | inconclusive: 23.1 µM [inhibitor, single point]
O=C1NC(=S)NC(=O)C1=Cc1ccc(OCc2ccccc2)cc1 | inconclusive: 9.2 µM [inhibitor, partial curve, poor fit]
CSCCC(c1nnnn1C1CCCC1)N1CCC2(CC1)C(=O)NCN2c1ccccc1 (configuration not stated) | inconclusive: 25.9 µM [inhibitor, single point]
CC(C)(C)c1ccc(C(=O)Nc2ccc3nc(SCC(=O)N4CCCC4)sc3c2)cc1 | active: 8.2 µM
C[C@]12CC[C@H](O)C[C@H]1CCC1C2CC[C@]2(C)[C@@H](c3ccc(=O)oc3)C[C@H]3O[C@]132 (some centres not stated) | inconclusive: 31.6 µM [inhibitor, single point]
CC(C)[C@H](N)C(=O)OCCOCn1cnc2c(=O)[nH]c(N)nc21 | active: 1.88 µM and active: 1.3 µM and active: 1.84 µM

SMILES | Potency
Cc1cc(=O)[nH]c(CCl)n1 | inconclusive: 32.6 µM [inhibitor, single point]
C[C@]12N[C@H](Cc3ccccc31)c1ccccc12 | inconclusive: 29.9 µM [inhibitor, single point]
ClCCNc1nc2ccc(Cl)cc2[nH]1 | inconclusive: 9.2 µM [inhibitor, partial curve]
O=C1Nc2ccccc2Sc2ccccc21 | inactive
O=C1NCCOC(=O)[C@@H](Cc2ccc(F)cc2)CC/C=C/C[C@@H]1CC(=O)N(CCO)Cc1ccccc1 | active: 20.6 µM
Cc1ccc(OCCOc2cccc(C=C3C(=O)NC(=O)NC3=O)c2)c(C)c1 | inconclusive: 18.4 µM [inhibitor, single point]
O=C(N[C@@H]1N=C(c2ccccc2F)c2cccc3c2N(CC3)C1=O)c1cc2ccccc2[nH]1 | inactive
CC(C)(C)N1C(=O)NC(=O)/C(=C\c2ccc3c(c2)CCN3CCCCl)C1=O | inactive
Cc1ccc(NC(=O)Cn2cc(C(=O)c3ccccc3)c3ccccc32)c(C)c1 | inconclusive: 25.9 µM [inhibitor, single point]
CC1(C)CC(n2[nH]c(=O)c3c2NC(=O)CSC3c2ccccc2)CCO1 (configuration not stated) | inconclusive: 29.1 µM [inhibitor, single point]
CC(C)C(=O)c1cn(Cc2ccc(C#N)cc2)c2ccccc12 | active: 29.1 µM
Cc1cc(N2C(=O)CC(N3CCC(n4c(=O)[nH]c5ccccc54)CC3)C2=O)no1 (configuration not stated) | inconclusive: 25.9 µM [inhibitor, single point]
CCCCCCn1c(N)c(C(=O)NCCN2CCOCC2)c2nc3ccccc3nc21 | active: 20.6 µM
COc1ccc(-n2c(/C=C/c3cccc(F)c3)nc3ccccc3c2=O)cc1Cl | active: 20.6 µM
C[C@@H]1CN([C@H](C)CO)S(=O)(=O)c2ccc(C#Cc3cccc(F)c3)cc2O[C@@H]1CN(C)C(=O)CN1CCOCC1 | inconclusive: 29.1 µM [inhibitor, single point]
CCOc1ccc(C2SCC(=O)Nc3c2c(=O)[nH]n3C2CCCCCC2)cc1 (configuration not stated) | inconclusive: 8.2 µM [inhibitor, partial curve]
Cn1ccc2c(-c3ccc(F)nc3)cc3c(c21)C1CCC3C1 (configuration not stated) | inconclusive: 32.6 µM [inhibitor, single point]
CCC(=O)O[C@H]1[C@@H](N2CCCCC2)C[C@H]2[C@@H]3CC[C@H]4C[C@H](OC(C)=O)[C@@H](N5CCCCC5)C[C@]4(C)[C@H]3CC[C@@]21C | active: 7.5 µM
c1cc2c(cc1C1OCC3C(c4ccc5c(c4)OCO5)OCC13)OCO2 (configuration not stated) | inconclusive: 13 µM [inhibitor, partial curve]
COc1ccccc1N1CCN(Cc2ccc(Cl)cc2Cl)CC1 | inconclusive: 29.1 µM [inhibitor, partial curve]
CCOC(=O)[C@]12Cc3cc(OC)ccc3[C@H]1N(Cc1ccccc1)C(=O)c1cc(F)c(F)cc12 | inconclusive: 35.5 µM [inhibitor, single point] and inconclusive: 29.1 µM [inhibitor, single point]
